PubChem BioAssay AID1347055 (National Center for Advancing Translational Sciences (NCATS), 2019)
The whole screen tested about 54,000 compounds, of which about 120 (0.22%) were called active. The inconclusive results got no clear call from the source; some entries with a clear call stand among them for comparison. The call rests on the fitted dose curve; in most records, active means well fitted inhibition curve with a large enough effect; inconclusive means small, poorly fitted or top-dose-only effect, or effect the other way; inactive means flat fitted curve, though single readings scatter. Potencies of inconclusive entries are left out as doubtful fits.

biological target: Fumarate hydratase, mitochondrial (Homo sapiens) (UniProt P07954); assay: Identification of activators of human fumarate hydratase by quantitative high-throughput screening; details: FH coupled MDH/diaphorase resazurin fluorescence, 15 min; series mostly up to 79.9 µM; further: the screen sought activators but most active calls are inhibition curves; nearly all actives have a fitted effect of over 45% in size
UniProt P07954, sequence (P07954 whole entry, looked up): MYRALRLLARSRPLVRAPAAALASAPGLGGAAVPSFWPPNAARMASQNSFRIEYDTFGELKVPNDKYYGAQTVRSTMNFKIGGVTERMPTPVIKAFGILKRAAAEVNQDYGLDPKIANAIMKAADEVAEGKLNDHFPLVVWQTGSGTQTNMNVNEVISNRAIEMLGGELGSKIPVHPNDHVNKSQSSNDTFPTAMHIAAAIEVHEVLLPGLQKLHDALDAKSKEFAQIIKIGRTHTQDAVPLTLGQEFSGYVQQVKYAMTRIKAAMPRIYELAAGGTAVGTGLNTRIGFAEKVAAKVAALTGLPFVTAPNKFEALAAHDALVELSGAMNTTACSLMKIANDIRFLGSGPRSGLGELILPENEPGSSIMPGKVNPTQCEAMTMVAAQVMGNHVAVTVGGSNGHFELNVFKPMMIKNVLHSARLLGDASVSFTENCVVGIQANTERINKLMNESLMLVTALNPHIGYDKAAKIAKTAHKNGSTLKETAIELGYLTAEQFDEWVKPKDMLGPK
Potency means the concentration at half of the fitted maximal effect; tags describe the fitted curve by direction and shape.

Row | SMILES | Potency
1 | Cc1ccc(C)c(CN2C(=O)c3ccccc3S(=O)c3ccc(C(=O)NCCC4=CCCCC4)cc32)c1 (centres undefined) | inactive
2 | COc1cccc(Nc2nc3ccc(C(=O)c4ccccc4)cc3n3c(C)nnc23)c1 | inconclusive [inhibitor, single point]
3 | Cc1cc(C)c(S(=O)(=O)NCCc2csc3nc(-c4ccc(Cl)cc4)nn23)c(C)c1 | inconclusive [inhibitor, single point]
4 | Cc1ccccc1Cn1c(CN2CCC(C(=O)NCCN(C)C)CC2)cc2ccccc21 | inconclusive [inhibitor, partial curve, poor fit]
5 | CCCCNC(=O)c1cnn2c(C)c(Cc3c(F)cccc3Cl)c(C)nc12 | inconclusive [inhibitor, partial curve, poor fit]
6 | O=C(NCCSc1c(-c2ccccc2)[nH]c2ccccc12)c1ccc(S(=O)(=O)N2CCOCC2)cc1 | inactive
7 | CCOC(=O)c1c(C)n(-c2ccccc2)c2ccc(OC(=O)c3ccccc3NC(=O)C(C)(C)C)cc12 | inconclusive [inhibitor, single point]
8 | Cc1ccc(NC(=O)CSc2ccc(-c3sc(-c4ccccc4)nc3C)nn2)cc1F | inconclusive [inhibitor, partial curve, poor fit]
9 | Cc1cc2c(cc1Cl)N(C(=O)Nc1ccc(Oc3cccnc3C)nc1)CC2 | inconclusive [inhibitor, partial curve, poor fit]
10 | CC1CCC2(OC1)OC1CC3C4CCC5C[C@@H](O[C@@H]6O[C@H](CO[C@@H]7OC[C@@H](O)[C@H](O)[C@H]7O)[C@H](O)[C@H](O)[C@H]6O)CC[C@]5(C)C4CC[C@]3(C)C1C2C (some centres undefined) | inconclusive [activator, partial curve, poor fit]
11 | CCCCCCCC/C=C/C(=O)O | inactive
12 | O=C(Cn1c(SCC(=O)Nc2ccc(F)cc2)nc2ccccc21)NCc1ccc(F)cc1 | inactive
13 | CCC(=O)Nc1ccccc1-c1nc2ccccc2n(C(CC)C(=O)Nc2cccc(Cl)c2)c1=O (centres undefined) | inactive
14 | O=S(=O)(c1ccccc1)c1nc(-c2cccc(Cl)c2)oc1N1CCOCC1 | inconclusive [inhibitor, single point]
15 | CCn1cc2nc(SCc3ccc(F)cc3)n(CCc3ccccc3)c(=O)c2n1 | inconclusive [inhibitor, single point]
16 | COc1cc(Cl)c(C)cc1NC(=O)c1cnn(-c2ccc(F)cc2F)c1C1CCN(C(=O)OC(C)(C)C)CC1 | inconclusive [inhibitor, single point]
17 | Cc1ccc(CNC(=O)Cc2ccc(NC(=O)N3CCSc4ncccc43)cc2)cc1 | inactive
18 | CCCNC(=O)c1ccc(Cn2c(=O)c3cccn3c3cccnc32)cc1 | inactive
19 | Cc1ccc(-n2c(C)cc(C(=O)C(=O)Nc3ccccc3)c2C)c(C)c1 | inconclusive [inhibitor, partial curve, poor fit]
20 | O=c1cc(-c2ccc(O)cc2)oc2cc(O)cc(O)c12 | inconclusive [inhibitor, partial curve, poor fit]

Row | SMILES | Potency
21 | CC1CCCN(C(=O)c2cc3ccc4cccnc4c3[nH]2)C1 (centres undefined) | inactive
22 | CCCCN1CC(c2nc3ccccc3n2CCCCOc2cc(C)ccc2C)CC1=O (centres undefined) | inconclusive [inhibitor, full curve]
23 | Cc1ccc2nc(-c3cccs3)c(Nc3c(C)cccc3C)n2c1 | inconclusive [inhibitor, single point]
24 | COc1ccc(NC(=O)CN2C(=O)CC(c3ccc(C)c(C)c3)=Nc3ccccc32)cc1OC | inconclusive [inhibitor, partial curve]
25 | CCc1cccc(NC(=O)c2cc3c(=O)n(Cc4ccccc4)ccc3nc2C)c1 | inconclusive [inhibitor, single point]
26 | O=C(Nc1cccc(Nc2cc(Nc3cccc(C(F)(F)F)c3)ncn2)c1)C1CC1 | inconclusive [inhibitor, partial curve, poor fit]
27 | Cc1cccc(-c2nc(CN3CCCC(C(=O)N4CCN(c5cc(Cl)ccc5C)CC4)C3)c(C)o2)c1 (centres undefined) | inconclusive [inhibitor, partial curve]
28 | COc1c(/C=C/C(C)(C)O)ccc2c1C(=O)OCc1cc(C)cc(O)c1O2 | inactive
29 | Cn1c(CNc2cccc(C(=O)NCc3ccccc3C(F)(F)F)c2)nnc1-c1ccncc1 | inconclusive [activator, single point]
30 | Cc1c(Cl)cccc1-c1ccc(CNCCSc2nnnn2-c2ccccc2)o1 | inconclusive [inhibitor, partial curve, poor fit]
31 | CC(C)Oc1ccccc1-c1nc(SCC(=O)c2ccc(F)cc2)n[nH]1 | inconclusive [inhibitor, single point]
32 | Cc1ccc(Nc2c(-c3c[nH]c4ccccc34)nc3ccccn23)cc1 | inconclusive [inhibitor, single point]
33 | Cc1ccc(NC(=O)Cn2c(=O)n(Cc3ccccc3)c(=O)c3sc4ccccc4c32)cc1 | inactive
34 | Cc1c(-c2nc(-c3ccccc3)no2)nnn1-c1ccc(F)c(Cl)c1 | inconclusive [inhibitor, full curve]
35 | COc1ccc(S(=O)(=O)NCC(c2cccs2)S(=O)(=O)c2ccccc2)cc1OC (centres undefined) | inactive
36 | Cc1oc(-c2ccc(Cl)cc2)nc1CN1CCCC(C(=O)NCCc2ccc(Cl)cc2)C1 (centres undefined) | inconclusive [inhibitor, partial curve]
37 | CCSc1nn(CC(=O)Nc2cccc(CC)c2)c(N)c1S(=O)(=O)c1ccccc1 | inconclusive [inhibitor, partial curve]
38 | Cc1ccc(S(=O)(=O)c2c(O)cc(C)c(NS(=O)(=O)c3ccc(Br)cc3)c2C)cc1 | inconclusive [inhibitor, partial curve, poor fit]
39 | Cc1ccc(-c2nc(CCNC(=O)c3ccc(C)c(C)c3)cs2)cc1 | inconclusive [inhibitor, partial curve, poor fit]
